Results on 14 molecules are retold here after article PMC12136788.

This is one part of the list.

B1: chr7:56126341:56126342:+_ENSG00000146731_ENST00000540286|hu_mus|hu_hu_hu_mus_True|1_38 (ssRNA)
RNA: GGGAGUUCUACAGUCCGACGAUCCAUGUUUCUCCUCUUGGCUCUGCGCAGAGCUACGAUCCCUUCUUUCGCAAGGGCAUCUAAGGAAAAGGGGUCAAUUCCCUUUUGAUUAAUAACGACAAAUCCUUUAUCUGAGUCGCCACACAACAGAGGAUUGAGCAUCA
B2: chr14:96998876:96998877:+_ENSG00000090060_ENST00000216277|hu_mus|motif|central (ssRNA)
RNA: GGGAGUUCUACAGUCCGACGAUCGAUAAAGCUGGCAAGUUCUUGCUACUAGCAUAGCCCAGGAAACACCACCGAGGAAACCGGAUAUAUUGGAAUAGAUGUUGUGCCGUUUGGCCCACAGUUUGAUGGCUCUCAGAGUUAACCCAACAGAGGAUUGAGCAUCA
B3: chr11:29999966:29999967:-_ENSMUSG00000020315_ENSMUST00000011877|mus_mus|FALSE|FALSE (ssRNA)
RNA: GGGAGUUCUACAGUCCGACGAUCACAUGUUGUGUGUUAGUAAGUGAUGCCGGAUACAAAUGGUUUGGCCUGUAGGUUUACAUGGAGCUGCACUGUGGCUGCAGCAAGAGAUCAGAAUACAUGAUCUGUUUAAUAAAGGCUACACAACAGAGGAUUGAGCAUCA
B4: chr7:118215947:118215948:-_ENSMUSG00000005610_ENSMUST00000162415|mus_mus|FALSE|FALSE (ssRNA)
RNA: GGGAGUUCUACAGUCCGACGAUCGGUCCUUGCAAUAGACUGCCUCUGCUUGAGAACUUAGGAUGUAAUUAUUGCAUGCUGCUAAUAUUCUAUCUAAACAUUAAGGAUACUCCUAAAGUAUUUGAUGGUAGACUAUGAUUAAGACAACAGAGGAUUGAGCAUCA
B5: chr6:17615347:17615348:+_ENSMUSG00000015733_ENSMUST00000015877|mus_mus|FALSE|FALSE (ssRNA)
RNA: GGGAGUUCUACAGUCCGACGAUCAUCUGCUCAUGCAAUUUUCAUUUAUGCAUUCUGCAUCUCUUUGCCAAUCUUGUAGCUAAGGAUCUUGUUCCAGUCGAUCUUAGUACGUGUCACUGGCAACUGUCGACGUAAGGCUUUGAACAACAGAGGAUUGAGCAUCA
B6: chr13:108516651:108516652:-_ENSMUSG00000032846_ENSMUST00000105097|mus_mus|motif|central (ssRNA)
RNA: GGGAGUUCUACAGUCCGACGAUCAUCGUGUGCCAUUAGGAAGGUCUCUCGGGCCUUGCUGAGGAACUCGAUAAACUCGCGGUAGUGCCGAGGACUGAUGUGUGUGAGGCGUGAGUGCGUUGUGUUGAUAUAGGCCCCGAUCGUCAACAGAGGAUUGAGCAUCA
B7: chr7:7679991:7679992:-_ENSG00000106399_ENST00000396682|hu_hu|hu_hu_hu_mus_False|88_98 (ssRNA)
RNA: GGGAGUUCUACAGUCCGACGAUCUGGGAUGAAUCUUUUCCAGCCUCCCUACGAAGCACACGGGCCGGUCGAUAUACUGUGGUAACAUGCUGGCGUUGACGCGCGCUUUGGGGAGCUGCAUUAUGUCCUCCAUGAUUCUGCCGCCAACAGAGGAUUGAGCAUCA
B8: chr4:38702237:38702238:+_ENSG00000109787_ENST00000261438|hu_hu|motif|central (ssRNA)
RNA: GGGAGUUCUACAGUCCGACGAUCUAAGCAGAAAGAUUAUUUUGACCCUCUAACACUAAGUACAUAACAGAAAAAAAAGUGCGGGUAUUUGUAAAACAAUAUUGUUGUAGCCCUCGUUUAAUGCAUGUAAAGAUGGCUUUGUAACAACAGAGGAUUGAGCAUCA
B9: 21613190_21613310_60_5pUTR_ENSMUSG00000021820_ENSMUST00000100837|mouse|control|control (ssRNA)
RNA: GGGAGUUCUACAGUCCGACGAUCGGCGGGCGGACGCGGCGGUGCAGCCCGCGCCGACGUCGGUGCACAGUCACCGCCGCCCGGCCGAGGGAGCAAGAGGAGGAGACGGGGCUGAGCCCGGCAGCACCGCGAGACUUUACCGGACAACAGAGGAUUGAGCAUCA
B10: 40054077_40054988_1424_CDS_ENSG00000131473_ENST00000352035|human|control|control (ssRNA)
RNA: GGGAGUUCUACAGUCCGACGAUCGCUGGGGGCUGGCGUCGAUGUGCUCCCGCUGGCGUUGAGGAGGAAGUUUGCAGUGUGGGCCGCUGUGGGUGGCUGGUUGGGGAUGGGCCGGUGGCCCAGGGCCAUGCCCACAAUGGCCGUCAACAGAGGAUUGAGCAUCA
B11: chr1:75481486:75481487:+_ENSMUSG00000051703_ENSMUST00000113575|mus_mus|FALSE|FALSE (ssRNA)
RNA: GGGAGUUCUACAGUCCGACGAUCGGGUCCCGAGCAGGCUGUCAGUGGUCCCCGGGACCCAUACUCAUAGUCCGUGUCUGUAGGGGAGGCCAUGAAGGAACUCAGAGAGCUCCCAGUCUGCCGGUCCCGGAAGCUCUGGAUGUACAACAGAGGAUUGAGCAUCA
B12: chr3:150289932:150289933:+_ENSG00000144895_ENST00000460851|hu_hu|hu_hu_hu_mus_False|58_108 (ssRNA)
RNA: GGGAGUUCUACAGUCCGACGAUCCUUGUAGUUUUUCACAUCCCAUACUUCCAUUUGUCCUCGAAGAUUUCCAAAUCCAGCUAAUACUAAUAUAUGUCCAUGAGGGCUAUAGAAGGCUGCGUUGCGAGGACCAGUCCCAAAGUCCAACAGAGGAUUGAGCAUCA
B13: chr5:21408736:21408737:-_ENSMUSG00000042453_ENSMUST00000161356|mus_hu|mus_mus_mus_hu_False|28_108 (ssRNA)
RNA: GGGAGUUCUACAGUCCGACGAUCGUUGACAGCAUUAUAGAUGGUGGCUUCAUGGAACUGGAAAGGGGAGCAGCCAAUGCUGUUAGAAGAGGAAGGAAGGCACUGGGUCUGCACGAGCUGCCAGGAAUCCGAUCUUGCAUCCUUCAACAGAGGAUUGAGCAUCA
B14: chr10:126663389:126663390:-_ENSMUSG00000074657_ENSMUST00000099172|mus_hu|FALSE|FALSE (ssRNA)
RNA: GGGAGUUCUACAGUCCGACGAUCGAGGAGCCUUUGAACAGUCAGUCCUAAGAGACGCUGAGACUUCUUCCACCAAAAAAAAAAAAAAAAAAAAAUGCAAACUGCCCAGGUCUGCAUUACUUUAUUUUUUAUAUUGGGGUUCUACAACAGAGGAUUGAGCAUCA

This assay has as its target T1, UNK ZnF1-3 (human, UniProt Q9C0B0 31-174).
T1 sequence: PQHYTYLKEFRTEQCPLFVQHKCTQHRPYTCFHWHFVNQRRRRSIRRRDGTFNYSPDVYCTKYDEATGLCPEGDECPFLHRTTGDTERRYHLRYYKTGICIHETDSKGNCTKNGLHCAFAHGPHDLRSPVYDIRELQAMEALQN
Put plainly: nsRBNS (natural sequence RNA bind-n-seq); RBNS binding buffer (assumed for nsRBNS): 25 mM Tris pH 7.5, 150 mM KCl, 3 mM MgCl2, 0.01% Triton X-100, 500 ug/ml BSA, 20 U/ml SUPERase-In, 4 C; UNK is unkempt and MSI1 is Musashi-1; names of the RNAs are library labels; protein concentration not given here; high values mean tight binding.
Turning to B1, the binding signal came out at 0.887 enrichment R.

For B2, the binding signal was 1.36 enrichment R. As for B3, the binding signal is 1.23 enrichment R. In turn, B4 came in with a binding signal of 1.31 enrichment R.

As to B5, the binding signal was found to be 0.434 enrichment R. In turn, B6 gave a binding signal of 1.12 enrichment R. The figure for B7 is 0.573 enrichment R; for B8 it is 1.14 enrichment R; for B9 it is 1.62 enrichment R.

The molecule B10 returned a binding signal of 0.683 enrichment R. The figure for B11 is 1.81 enrichment R; for B12 it is 1.26 enrichment R.

For B13, the binding signal turned out to be 1.63 enrichment R. To B14 belongs 1.15 enrichment R.
